These results are taken from paper PMC4336329 (PLoS ONE, 2015).

SMILES strings stand for the structures. Among all 310,000 compounds or so, about 2,200 (0.71%) showed an effect of 50% or more. The effect is printed as a negative number. Some of the results follow.

Sequence of human ether-à-go-go-related gene (hERG) potassium channel (Q12809 whole entry, looked up): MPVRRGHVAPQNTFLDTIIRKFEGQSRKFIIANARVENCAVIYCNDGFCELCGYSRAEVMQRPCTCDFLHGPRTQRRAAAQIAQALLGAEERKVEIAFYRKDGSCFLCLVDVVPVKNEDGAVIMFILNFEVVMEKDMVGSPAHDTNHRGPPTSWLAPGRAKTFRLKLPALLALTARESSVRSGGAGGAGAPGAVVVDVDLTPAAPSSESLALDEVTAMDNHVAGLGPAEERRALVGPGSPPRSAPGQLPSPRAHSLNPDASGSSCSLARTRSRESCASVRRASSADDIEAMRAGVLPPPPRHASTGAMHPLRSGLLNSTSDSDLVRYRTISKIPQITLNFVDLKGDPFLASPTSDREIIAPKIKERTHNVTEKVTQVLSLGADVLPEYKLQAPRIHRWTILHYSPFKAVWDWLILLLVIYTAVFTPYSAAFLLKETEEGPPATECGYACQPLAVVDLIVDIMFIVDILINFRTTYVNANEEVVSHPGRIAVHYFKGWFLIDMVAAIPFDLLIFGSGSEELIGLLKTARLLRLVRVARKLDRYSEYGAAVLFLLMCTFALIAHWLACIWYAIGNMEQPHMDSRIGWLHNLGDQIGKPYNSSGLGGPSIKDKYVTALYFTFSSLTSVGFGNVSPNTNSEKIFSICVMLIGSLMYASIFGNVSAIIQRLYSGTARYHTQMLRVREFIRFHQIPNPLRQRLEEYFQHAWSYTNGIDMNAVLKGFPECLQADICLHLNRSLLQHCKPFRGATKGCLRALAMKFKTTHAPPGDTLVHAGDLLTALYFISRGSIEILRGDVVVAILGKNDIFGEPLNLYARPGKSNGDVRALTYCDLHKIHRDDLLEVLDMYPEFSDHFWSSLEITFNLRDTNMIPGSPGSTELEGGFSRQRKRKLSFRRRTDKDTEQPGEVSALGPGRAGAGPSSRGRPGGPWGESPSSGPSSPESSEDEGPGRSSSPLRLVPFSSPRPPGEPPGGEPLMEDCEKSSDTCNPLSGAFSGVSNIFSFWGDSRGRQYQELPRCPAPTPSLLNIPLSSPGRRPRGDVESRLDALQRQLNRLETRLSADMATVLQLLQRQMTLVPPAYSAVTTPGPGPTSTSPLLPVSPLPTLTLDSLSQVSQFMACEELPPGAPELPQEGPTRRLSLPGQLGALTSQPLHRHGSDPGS

This experiment addresses human ether-à-go-go-related gene (hERG) potassium channel (human, UniProt Q12809). In words: primary screen, population patch clamp on CHO cells stably expressing hERG.
`COc1ccc(NC(=O)c2ccc(NC(=O)CCS(=O)(=O)c3cccs3)cc2)cc1`: the “hERG current change (%, negative = inhibition) at 1uM” value is recorded as 14%.

As to `CCCCCCN1CC(=O)N2[C@@H](Cc3c([nH]c4ccccc34)C2(C)C)C1=O`, the “hERG current change (%, negative = inhibition) at 1uM” value was 15.5%.

Turning to `O=C(NNC(=S)NC(=O)c1sc2ccccc2c1Cl)c1ccc(Cl)cc1`, the “hERG current change (%, negative = inhibition) at 1uM” value came to 12.2%.

As to `O=C(NCc1ccncc1)c1ccc(Br)o1`, the “hERG current change (%, negative = inhibition) at 1uM” value is recorded as -0.613%.

Take `O=C(CSCC(=O)Nc1cccc2ccccc12)Nc1cccc2ccccc12`: the “hERG current change (%, negative = inhibition) at 1uM” value turned out to be 23.7%.

Take `CCOc1cc(/C=N/Nc2nnc(C)n2N)ccc1OC(C)=O.Cl`: the “hERG current change (%, negative = inhibition) at 1uM” value is given as 11.7%.

For `CC1CN=C(NC(C)c2ccccc2)S1` (stereo not shown), the “hERG current change (%, negative = inhibition) at 1uM” value worked out at 6.3%.

With `O=[N+]([O-])c1ccc(N2CCCC2)cc1NC(c1ccccc1)c1ccccc1`, the “hERG current change (%, negative = inhibition) at 1uM” value was 14.9%.

`CCc1[nH]nc2c1C1(CCN(C(=O)OCc3ccccc3)CC1)C(C#N)=C(N)O2`: the “hERG current change (%, negative = inhibition) at 1uM” value was 9.7%.

Regarding `O=C(Nc1nnc(C23CC4CC(CC(C4)C2)C3)s1)c1ccc(N2C(=O)CCC2=O)cc1`, the “hERG current change (%, negative = inhibition) at 1uM” value came to 13.1%.

Consider `CCCCN(C)CCN1C(=O)C2C(C(=O)Nc3ccc(Cl)cc3)C3C=CC2(O3)C1C(=O)NC1CCCCC1` (stereo not shown), for which the “hERG current change (%, negative = inhibition) at 1uM” value is -60.5%.

In the case of `COc1cccc(C(=O)COC(=O)C(C)N2C(=O)c3ccccc3C2=O)c1` (stereo not shown), the “hERG current change (%, negative = inhibition) at 1uM” value is on record as 16.2%.

As for `CC1CCN(c2c(NCc3ccc(C(=O)NCC4COc5ccccc5O4)cc3)c(=O)c2=O)CC1` (stereo not shown), the “hERG current change (%, negative = inhibition) at 1uM” value amounted to 6.92%.

On to `c1ccc2c(c1)nc(-c1ccncc1)n2CCNc1nc(CN2CCCCC2)cs1`, for which the “hERG current change (%, negative = inhibition) at 1uM” value worked out at 12%.

`CC(NC(=O)CCc1ccccc1)c1ccc2c(c1)OCO2` (stereo not shown): the “hERG current change (%, negative = inhibition) at 1uM” value was determined as 20.1%.

With `COC(=O)c1ccccc1C(=O)N1CCCC(C(=O)c2ccc(OC)c(OC)c2)C1` (stereo not shown), the “hERG current change (%, negative = inhibition) at 1uM” value is 14.3%.

In the case of `COc1ccc(-c2ccc3nnc(SCC(=O)N4CCCC4)n3n2)cc1`, the “hERG current change (%, negative = inhibition) at 1uM” value is recorded as -4.68%.

Regarding `COc1ccc(NC(=O)CC2C(=O)OCC3CCCCN32)cc1Cl` (stereo not shown), the “hERG current change (%, negative = inhibition) at 1uM” value was -2.17%.

Regarding `CCOc1cccc(CN2CCC(n3nccc3NC(=O)c3ccc4c(c3)OCO4)CC2)c1`, the “hERG current change (%, negative = inhibition) at 1uM” value is given as -1.26%.

As to `CC(C)OCCCN1CN(S(=O)(=O)c2ccccc2)c2nc3ccccc3nc21`, the “hERG current change (%, negative = inhibition) at 1uM” value came to 12.3%.

As for `O=C(Nc1nc2nccc(-c3ccccc3)n2n1)c1ccccc1`, the “hERG current change (%, negative = inhibition) at 1uM” value came to 2.61%.

For the compound `Cc1cc(-c2cccc([N+](=O)[O-])c2)nc2ccccc12`, the “hERG current change (%, negative = inhibition) at 1uM” value is -1.23%.

Regarding `CC(=O)c1cccc(NS(=O)(=O)N2CCOCC2)c1`, the “hERG current change (%, negative = inhibition) at 1uM” value is recorded as 5.09%.

Turning to `Cc1ccc(N2C(=O)c3cccc4c(N5CCN(C)CC5)ccc(c34)C2=O)c2cccnc12`, the “hERG current change (%, negative = inhibition) at 1uM” value amounted to 13.4%.

Consider `COc1ccccc1/C=N/n1nnnc1N`, for which the “hERG current change (%, negative = inhibition) at 1uM” value was 14.2%.

Regarding `CCCCN1C(=O)/C(=C/c2ccc(N(C)C)cc2)C(=O)N(Cc2ccco2)C1=O`, the “hERG current change (%, negative = inhibition) at 1uM” value amounted to 11.5%.

Regarding `O=C(NNc1nc2ccccc2s1)Nc1ccccc1`, the “hERG current change (%, negative = inhibition) at 1uM” value is on record as 2.55%.

For `Cc1c(NC(=O)/C(C#N)=C\c2cccs2)c(=O)n(-c2ccccc2)n1C`, the “hERG current change (%, negative = inhibition) at 1uM” value stood at 4.97%.

On to `COc1cc(/C=C2\SC(=S)N(c3cccnc3)C2=O)ccc1O`, for which the “hERG current change (%, negative = inhibition) at 1uM” value was 10%.

As for `O=[N+]([O-])c1ccc(N2CCCC2)cc1NC1CC1`, the “hERG current change (%, negative = inhibition) at 1uM” value is 8.12%.

Consider `CC(c1ccccc1)n1c(N2CCNCC2)nc2c1c(=O)[nH]c(=O)n2C` (stereo not shown), for which the “hERG current change (%, negative = inhibition) at 1uM” value came out at 7.28%.

Turning to `COc1ccc(CNC(=O)CN(C(=O)CCC(=O)Nc2ccccn2)c2ccccc2OC)cc1`, the “hERG current change (%, negative = inhibition) at 1uM” value stood at 5.56%.

Consider `C=C1CCN([C@@H](Cc2ccccc2)C(=O)NCc2ccccc2)S(=O)(=O)c2ccccc21`, for which the “hERG current change (%, negative = inhibition) at 1uM” value was determined as 9.01%.

Turning to `Cc1ccc(-n2nc(C)c(C(=O)N3CCN(C(=O)c4ccco4)CC3)c2-n2cccc2)cc1`, the “hERG current change (%, negative = inhibition) at 1uM” value stood at 12.3%.

In the case of `CC(C)[C@@H](C(=O)N[C@@H](C(=O)O)c1ccccc1)N1C(=O)N2CCc3c([nH]c4ccccc34)[C@@]2(C)C1=O`, the “hERG current change (%, negative = inhibition) at 1uM” value worked out at 11.8%.

For `CN(CC(=O)Nc1ccccc1Cl)CC(=O)N1CCc2ccccc21`, the “hERG current change (%, negative = inhibition) at 1uM” value came to 3.55%.

Regarding `COc1cc(/C=c2\s/c(=C\C(=O)C(C)(C)C)[nH]c2=O)cc(OC)c1OC`, the “hERG current change (%, negative = inhibition) at 1uM” value amounted to 5.12%.

As to `CC1CCCCC1NC(=O)Cn1nc(-c2ccccc2)ccc1=O` (stereo not shown), the “hERG current change (%, negative = inhibition) at 1uM” value turned out to be 6.19%.

Consider `COc1cc(OC)c(NS(=O)(=O)c2cc3[nH]c(=O)c(=O)[nH]c3cc2C)cc1Cl`, for which the “hERG current change (%, negative = inhibition) at 1uM” value is recorded as 16.9%.

Turning to `COc1ccccc1/C=C/C=N/n1c(-c2ccccn2)n[nH]c1=S`, the “hERG current change (%, negative = inhibition) at 1uM” value is 10.8%.

Take `CSCCC(NS(=O)(=O)c1ccc(C)cc1)C(=O)Nc1ccc(C)cn1` (stereo not shown): the “hERG current change (%, negative = inhibition) at 1uM” value is given as 3.64%.

Turning to `CCOC(=O)/C=C1\CN(C(C)c2ccccc2)S(=O)(=O)c2ccccc21` (stereo not shown), the “hERG current change (%, negative = inhibition) at 1uM” value stood at 10.2%.

As for `Cc1cc(C)c2c(=O)n(CC(=O)Nc3cccc(Cl)c3C)sc2n1`, the “hERG current change (%, negative = inhibition) at 1uM” value stood at 8.78%.

As for `C=C(C)CSc1nnc2[nH]c(=O)cc(N)n12`, the “hERG current change (%, negative = inhibition) at 1uM” value stood at 14.6%.

In the case of `c1ccc(P(c2ccccc2)c2ccccn2)cc1`, the “hERG current change (%, negative = inhibition) at 1uM” value was determined as 11.1%.

Consider `CC(C)CNc1nc(Oc2ccc(=O)[nH]n2)nc(N2CCOCC2)n1`, for which the “hERG current change (%, negative = inhibition) at 1uM” value is 7.59%.

On to `CC(C)N(Cc1cc2ccccc2[nH]c1=O)C(=O)C1CCCCC1`, for which the “hERG current change (%, negative = inhibition) at 1uM” value is given as -1.03%.

Regarding `O=C(Cn1cnc(S(=O)(=O)N2CCCCC2)c1)NCc1ccco1`, the “hERG current change (%, negative = inhibition) at 1uM” value came out at 9.97%.

As for `CCCN(C(=O)COC(=O)c1[nH]c(C)c(C(=O)OC)c1C)c1c(N)n(Cc2ccccc2)c(=O)[nH]c1=O`, the “hERG current change (%, negative = inhibition) at 1uM” value amounted to 12.7%.

In the case of `O=C(O)Cn1nc(-c2ccc(F)cc2)oc1=O`, the “hERG current change (%, negative = inhibition) at 1uM” value is reported as 13.3%.

Regarding `COc1cc(NC(=O)CN(c2ccc(C)cc2)S(=O)(=O)c2c(C)noc2C)cc(OC)c1`, the “hERG current change (%, negative = inhibition) at 1uM” value was 11.9%.

Turning to `Cc1noc(C)c1COC(=O)c1cnc(Cl)c(Cl)c1`, the “hERG current change (%, negative = inhibition) at 1uM” value is listed as 3.32%.

Regarding `O=C(CSc1ncnc2ccccc12)NCc1ccc2c(c1)OCO2`, the “hERG current change (%, negative = inhibition) at 1uM” value is 3.3%.

With `C[N+](C)(CC#Cc1ccccc1)CC(=O)c1ccccc1.[Br-]`, the “hERG current change (%, negative = inhibition) at 1uM” value is reported as 8.78%.

`O=c1[nH]ncc2c3ccccc3n(Cc3ccccc3)c12`: the “hERG current change (%, negative = inhibition) at 1uM” value worked out at 14.2%.
